The values below come from paper PMC5719402, “Protein-Structure Assisted Optimization of 4,5-Dihydroxypyrimidine-6-Carboxamide Inhibitors of Influenza Virus Endonuclease” (Scientific Reports, 2017).

pIC50: −log10 of the molar value.

The first assay concerns influenza virus A/Puerto Rico/8/34 (H1N1). Description: microbe, parasite or virus in culture.
Conditions: not given
Format: cell-based.
Consider `O=C(NCCS(=O)(=O)c1ccccc1)c1nc([C@@H]2CCCN2C(=O)c2c(Cl)cncc2Cl)[nH]c(=O)c1O` [Compound 8e], for which the “Inhibition of wild type virus growth in plaque inhibition assay” value is given as “no effect”.

Still in this assay, the particulars now being: H1N1, MDCK, read-out: Plaque inhibition IC50.
The pIC50 is −log10 of the IC50, conventionally taken in molar units. As for `O=C(NCCc1ccccc1)c1nc([C@@H]2CCCN2C(=O)c2c(Cl)cncc2Cl)[nH]c(=O)c1O` [Compound 7c], the negative-log IC50 (pIC50) is 4.73.
As for `O=C(NC1Cc2ccccc2C1)c1nc([C@@H]2CCCN2C(=O)c2c(Cl)cncc2Cl)[nH]c(=O)c1O` [Compound 8f], the negative logarithm of the IC50 (pIC50) was 4.81.
Same read-out and setting: for `O=C(NCC1Cc2ccccc2O1)c1nc([C@@H]2CCCN2C(=O)CSc2ccccc2Cl)[nH]c(=O)c1O` (stereo partly shown) [Compound 10k] the value was 4.92.
`O=C(NCCS(=O)(=O)c1ccccc1)c1nc([C@@H]2CCCN2C(=O)c2c(Cl)cncc2Cl)[nH]c(=O)c1O` [Compound 8e]: the pIC50 was under 4.00.
For `O=C(NCCS(=O)(=O)c1ccccc1)c1nc([C@@H]2CCCN2C(=O)CSc2ccccc2Cl)[nH]c(=O)c1O` [Compound 10e], the pIC50 was 4.89.
For the compound `O=C(NCCOc1ccccc1)c1nc([C@@H]2CCCN2C(=O)COc2ccccc2Cl)[nH]c(=O)c1O` [Compound 9f], the pIC50 is 4.42.
As for `O=C(NC1Cc2ccccc2C1)c1nc([C@@H]2CCCN2C(=O)CSc2ccccc2Cl)[nH]c(=O)c1O` [Compound 10i], the negative-log IC50 (pIC50) was 4.74.
Regarding `COc1cc2c(cc1OC)CC(NC(=O)c1nc([C@@H]3CCCN3C(=O)CSc3ccccc3Cl)[nH]c(=O)c1O)C2` [Compound 10j], the negative-log IC50 (pIC50) was 5.15.
As for `O=C(NCCc1ccccc1)c1nc([C@@H]2CCCN2C(=O)c2c(Cl)cccc2Cl)[nH]c(=O)c1O` [Compound 7a], the pIC50 was 4.63.
